# In article PMC4242493:
# Some of the results follow. The list includes weakly bound sequences.
# Target: MaxL homodimer (UniProt P61244)
# Assay: universal protein-binding microarray (PBM)
# Details: PBS-based mixture, 10 nM His-tagged protein dimer, 2% milk, 200 ng/uL BSA, 50 ng/uL salmon testes DNA, 0.02% TX-100; detection with Alexa 488 anti-His …; high values mean tight binding; most listed sequences are background and not binding sites; double strand, one strand shown
# Chain of UniProt P61244 (P61244 whole entry): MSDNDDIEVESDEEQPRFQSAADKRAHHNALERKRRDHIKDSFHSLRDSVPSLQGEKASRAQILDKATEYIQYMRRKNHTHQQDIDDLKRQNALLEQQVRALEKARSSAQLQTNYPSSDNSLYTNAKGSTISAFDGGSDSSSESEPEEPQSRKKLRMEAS
row,Sequence,binding signal (normalized occupancy)
1,ACATGCCT,0.0828
2,AAACGTGG,0.123
3,ACTTCGAT,0.0748
4,ATCCCATG,0.0946
5,AGGAAACG,0.0765
6,TCTAAAAA,0.0732
7,CACCCGCG,0.0782
8,AATCGGGC,0.071
9,GTTTTTGA,0.0713
10,ACAAGGCT,0.0781
11,CCGTGACC,0.075
12,GATCTGCC,0.0734
13,ATTATGAG,0.0848
14,CCAATAAC,0.0763
15,AAAATTGA,0.0757
16,CCGATCCA,0.0802
17,CTTCTCAC,0.0785
18,CTGCTATC,0.0712
19,CACGTTGC,0.131
20,AACCAGTA,0.074
21,AATTGCCC,0.0741
22,GTCATAAA,0.076
23,CTCTCTCA,0.076
24,ACACTGTA,0.0803
25,CCGAATAG,0.0733

row,Sequence,binding signal (normalized occupancy)
1,GCATTTGA,0.0815
2,CAAAACTA,0.0709
3,GCGTCTCA,0.0718
4,ACTTTGTA,0.0753
5,GAATCAGA,0.0774
6,GCGTAACA,0.0739
7,AAGATCAT,0.0825
8,AGAATAAC,0.0823
9,GGACTACC,0.0742
10,CGTATCCC,0.0805
11,CATGTTAA,0.0923
12,ATGCTAGA,0.0794
13,CAGAGTAA,0.0689
14,GAGTAGGA,0.0735
15,GCAACTAA,0.0688
16,CTCTGGAA,0.0706
17,AGCTGGCG,0.0693
18,ATGAATTC,0.0754
19,ACAATGTC,0.079
20,CAGCTCCG,0.0677
21,CCGGTGTA,0.0821
22,AGACCTCC,0.0702
23,CCAGAGGG,0.064
24,ACTACGCG,0.0703
25,CCGAGTAG,0.0732

row,Sequence,binding signal (normalized occupancy)
1,CGACCTTC,0.0701
2,CGGATTAC,0.0742
3,AGGGCATG,0.092
4,CCGCCAGG,0.0711
5,ACCCGTAG,0.0728
6,ACGTCTTG,0.0724
7,CGCGAAAA,0.0702
8,CTCATTTA,0.0789
9,CAACGTTA,0.0767
10,ATGAGGGA,0.0908
11,AATATGCT,0.0802
12,CCGCGGCA,0.0723
13,CGGTGTTC,0.0776
14,CTATTAGA,0.074
15,CTATTGAC,0.0725
16,CCGCAGCG,0.065
17,ATAAGTAT,0.0786
18,CAGGACAA,0.074
19,AAGCCATA,0.0746
20,ACGGCATA,0.0754
21,CTGTATGC,0.076
22,AGTGAGTC,0.0739
23,ACTTACGC,0.0773
24,GTTAATAA,0.0741
25,AGCCGAAA,0.0717

row,Sequence,binding signal (normalized occupancy)
1,AGACCTCT,0.0673
2,ATAGGAAA,0.0763
3,CGGTTGTA,0.0742
4,CTCTTATC,0.0773
5,AACTACCG,0.0735
6,ACCAAACC,0.073
7,CTTCAGCA,0.0773
8,CACTTCGA,0.0721
9,CTAACGGA,0.0682
10,TGGAATAA,0.0735
11,CAAAGCGG,0.0658
12,CTTAGTGA,0.0725
13,ACTTAACT,0.0756
14,CCCTCCCG,0.0755
15,CTCTCCTA,0.0741
16,ATAATCTG,0.0723
17,TACCGGCA,0.0779
18,GATAAAAA,0.0813
19,GAACCTCC,0.0739
20,CGCTGGGA,0.0693
21,GCTGGATA,0.0758
22,AGACGTAT,0.0799
23,ACGCGACT,0.0771
24,CTTTATGC,0.074
25,ATCGGACG,0.0722

row,Sequence,binding signal (normalized occupancy)
1,CACTTTAG,0.0715
2,CTGGGGTC,0.0775
3,TGGATAAA,0.0753
4,CTATATCC,0.0854
5,GAAAGGTA,0.0727
6,CTCATTAA,0.0808
7,GAGGTCCA,0.0756
8,ATCTGCAG,0.0736
9,ACGAAGAC,0.0709
10,ATGCTTAC,0.0835
11,CAAACGGA,0.0706
12,CGTTTCTA,0.0801
13,GGGCGTAC,0.0687
14,CCACGCTA,0.0973
15,TGACATAA,0.0787
16,AATGTGAC,0.0908
17,CGGGAGTA,0.0722
18,GGCTCCAA,0.0662
19,AGTGTGCC,0.082
20,ACGTTGCG,0.0766
21,GCCCCTCC,0.082
22,AAAGCCGG,0.0657
23,CCCGCTAA,0.0718
24,CAGTGAAG,0.0695
25,GTTAGAAC,0.0686

row,Sequence,binding signal (normalized occupancy)
1,ATCGCATG,0.108
2,CTCCCTCA,0.073
3,GTATAGAA,0.0793
4,CCGACCAC,0.0807
5,CTTGGCCC,0.065
6,CGGAATAA,0.0777
7,AGGTTCAC,0.0748
8,TCTACTCA,0.0829
9,AAAAAGGT,0.0711
10,AAATTGCG,0.0738
11,AAGTATTG,0.0757
12,AGCGACAT,0.0759
13,CGTCATAC,0.0813
14,AATTATCC,0.0771
15,TCTGTGCA,0.0797
16,GTATCGGA,0.0757
17,AATACTAT,0.0791
18,TCCAAACA,0.0765
19,CGTTCCAA,0.0768
20,GTACCAAC,0.0697
21,AGCGTACG,0.0746
22,CCGTAAGA,0.0746
23,AGGCACGA,0.0793
24,ATCGTAAT,0.0833
25,AATGCAAC,0.0776

row,Sequence,binding signal (normalized occupancy)
1,AGGTTTAA,0.071
2,GAACGGTA,0.077
3,GAACCCAA,0.0696
4,GGTAGAGA,0.0754
5,CCATTCCG,0.0757
6,AACGAAAT,0.0746
7,AGCATCCC,0.077
8,AGATGAAT,0.0802
9,CGTCTCAA,0.0753
10,CCTTTACC,0.0766
11,CGTCACAA,0.0763
12,TCGTCAAA,0.0736
13,AGTCATAC,0.084
14,CGCGCTCC,0.0756
15,CGTATGGC,0.0827
16,CTCCGTGC,0.0756
17,AGAAAGAC,0.0712
18,ATCGTGTG,0.0889
19,CCTCGCCG,0.0725
20,CAAGGGCG,0.0697
21,AAGATAGA,0.0761
22,AAGTCTTG,0.0729
23,CTGACTAA,0.0729
24,CACCTTAC,0.0694
25,AATATTTA,0.0834

row,Sequence,binding signal (normalized occupancy)
1,GTCGCCTA,0.0701
2,AAAGACGT,0.074
3,CACGGTGG,0.0865
4,TAACCATA,0.08
5,CATCACTC,0.0774
6,GAGGTTGC,0.0712
7,AATGAAGC,0.0732
8,AAATTCTA,0.0726
9,CAAGTCCC,0.0697
10,TACGAAGA,0.0749
11,ACCTTCGC,0.0738
12,AATGTCCG,0.074
13,ACTAATTC,0.0767
14,TTGACCAA,0.0776
15,GGTTGATA,0.0767
16,AATGTCCT,0.0786
17,TCTTTGAA,0.0741
18,ACGCTCAG,0.0739
19,AGCAACTA,0.0716
20,AAATACAA,0.076
21,GGCCTCCC,0.0653
22,ACATAGCT,0.0762
23,TAGGGAGA,0.0748
24,CGTGGAAC,0.083
25,AGTTAATC,0.0813

row,Sequence,binding signal (normalized occupancy)
1,GCAGATAA,0.0745
2,ATGACATC,0.0827
3,CTAGTTGC,0.0695
4,ATTGGAGC,0.0728
5,CACATGGC,0.199
6,AAGACTGG,0.0734
7,CCGTACCC,0.0759
8,TAGTCTCA,0.0752
9,CTCACTTC,0.0734
10,AGTAATCA,0.0795
11,CCTAGGAA,0.0687
12,CAGTCCAG,0.0707
13,ACCGAGTC,0.0691
14,CACAATTA,0.0775
15,AAGCGCGA,0.0749
16,TACAGTAA,0.0811
17,CCGCCTCG,0.071
18,ACGCAACC,0.0796
19,CTGTCAGA,0.0705
